# Article PMC4336329 (PLoS ONE, 2015)
# About 14,000 (4.5%) of roughly 310,000 compounds showed an effect of 50% or more. Effects have a minus sign here. Some of the results follow.
# Biological target: human ether-à-go-go-related gene (hERG) potassium channel (human, UniProt Q12809)
# Assay: primary screen, population patch clamp on CHO cells stably expressing hERG
# 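Also: peak tail current of the secondary pulse compared with the same well before compound.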
# Chain of human ether-à-go-go-related gene (hERG) potassium channel (Q12809 whole entry, looked up): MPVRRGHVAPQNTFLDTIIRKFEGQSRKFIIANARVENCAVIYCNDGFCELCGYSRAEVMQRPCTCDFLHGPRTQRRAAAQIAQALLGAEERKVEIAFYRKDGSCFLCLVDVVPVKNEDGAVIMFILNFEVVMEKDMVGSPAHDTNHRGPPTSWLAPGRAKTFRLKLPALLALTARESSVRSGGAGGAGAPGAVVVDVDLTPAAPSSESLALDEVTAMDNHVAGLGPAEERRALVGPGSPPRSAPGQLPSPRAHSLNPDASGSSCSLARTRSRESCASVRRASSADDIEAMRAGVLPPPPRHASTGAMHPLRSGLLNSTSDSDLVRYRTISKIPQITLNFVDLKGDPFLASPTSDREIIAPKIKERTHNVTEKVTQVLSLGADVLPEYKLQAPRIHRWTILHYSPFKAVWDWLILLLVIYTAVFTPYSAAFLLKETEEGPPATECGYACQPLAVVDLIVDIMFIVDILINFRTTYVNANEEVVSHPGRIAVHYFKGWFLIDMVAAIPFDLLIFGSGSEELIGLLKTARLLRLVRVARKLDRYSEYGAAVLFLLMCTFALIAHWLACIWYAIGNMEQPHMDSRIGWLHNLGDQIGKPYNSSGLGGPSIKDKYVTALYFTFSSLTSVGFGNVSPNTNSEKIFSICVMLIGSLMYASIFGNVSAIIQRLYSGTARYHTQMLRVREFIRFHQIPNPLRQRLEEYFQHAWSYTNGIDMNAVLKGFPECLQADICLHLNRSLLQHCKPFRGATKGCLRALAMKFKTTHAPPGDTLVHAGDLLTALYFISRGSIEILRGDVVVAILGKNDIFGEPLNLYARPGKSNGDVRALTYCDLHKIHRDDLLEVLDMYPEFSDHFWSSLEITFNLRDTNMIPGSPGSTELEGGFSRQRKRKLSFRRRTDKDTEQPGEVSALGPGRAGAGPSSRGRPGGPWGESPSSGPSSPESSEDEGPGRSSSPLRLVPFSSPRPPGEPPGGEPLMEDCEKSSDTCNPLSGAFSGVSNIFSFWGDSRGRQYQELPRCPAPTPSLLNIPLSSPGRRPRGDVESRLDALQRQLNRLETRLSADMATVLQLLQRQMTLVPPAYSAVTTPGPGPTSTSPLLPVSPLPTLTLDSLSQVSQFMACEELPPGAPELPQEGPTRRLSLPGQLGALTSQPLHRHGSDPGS
row,SMILES,"hERG current change (%, negative = inhibition) at 10uM"
1,Cc1ccc(NC(=O)c2ccco2)cc1NC(=O)CSc1nnc(-c2cccs2)n1C,-38%
2,COc1ccc(C(C)C)cc1S(=O)(=O)NCc1ccccn1,-3.11%
3,Cn1c(O)c(C(c2ccncc2)c2c(O)n(C)c(=S)n(C)c2=O)c(=O)n(C)c1=S,21.2%
4,Cc1[nH]c(=O)cc2ccccc12,17.8%
5,O=C(COC(=O)c1ccco1)Nc1cccc(Br)c1,5.51%
6,COc1cc2[nH]c(=S)n(CCN3CCCCC3C)c(=O)c2cc1OC (stereo not drawn),-9.24%
7,COc1ccc(NC(=O)C(c2cc3c(cc2[N+](=O)[O-])OCO3)N(C)Cc2ccccc2)cc1 (stereo not drawn),2.02%
8,CC(C(=O)Nc1cccnc1)N1C(=O)c2ccccc2C1=O (stereo not drawn),14.5%
9,CCOC(=O)N1CCN(C(=O)CSc2ccc(-c3ccccc3OC)nn2)CC1,1.58%
10,Cc1nc(C)n(CC(=O)N2CCCC(C(=O)c3ccc(Cl)cc3C)C2)n1 (stereo not drawn),-0.162%
11,Cc1nnc(SCC(=O)N(Cc2ccccc2)C(C)C)n1-c1ccccc1,-5.28%
12,Cc1ccc(-c2csc(NC(=O)CSc3nc(C)cs3)n2)cc1,-7.66%
13,Fc1ccc(CN2CCN(c3ncnc4scc(-c5ccc(F)cc5)c34)CC2)cc1,5.9%
14,COc1cc(C(=S)N2CCOCC2)cc(Br)c1OS(=O)(=O)c1ccccc1,14.5%
15,CCCn1c(SCC(=O)NC2CCCc3ccccc32)n[nH]c1=O (stereo not drawn),56%
16,COc1ccccc1CN1CCN(Cc2nc(-c3ccc(C)cc3)oc2C)CC1,-58.8%
17,Cc1c(C(=O)OCC(=O)Nc2cccc(S(N)(=O)=O)c2)oc2c1ccc1ccccc12,1.32%
18,CCOC(=O)C1CN(S(C)(=O)=O)c2cc(CC(=O)OC)ccc2O1 (stereo not drawn),1.78%
19,CC(=O)Nc1ccc(NS(=O)(=O)c2cc(Cl)sc2Cl)cc1,2.61%
20,COc1cccc(Cl)c1NC(=O)N1CCc2c([nH]c3ccccc23)C1C(F)(F)F (stereo not drawn),9.87%
21,COc1ccc(C2CC(=O)N(CC(=O)NCC3CCCO3)c3ccccc3S2)cc1 (stereo not drawn),-27.1%
22,CCOc1ccc(-n2nc3c(=S)[nH]nc(C)c3c2C)cc1,2.04%
23,CC1Oc2ccccc2C=C1/C=N/NC(=O)c1ccccc1 (stereo not drawn),8.52%

row,SMILES,"hERG current change (%, negative = inhibition) at 10uM"
1,O=C(O)c1ccc2c(=O)n(-c3ccc(F)cc3)c(=S)[nH]c2c1,7.01%
2,CNC(=S)N(Cc1ccco1)Cc1cc2cc3c(cc2[nH]c1=O)OCCO3,-18.9%
3,COc1ccc(C2=NS(=O)(=O)N(C)C(C(=O)NCc3ccccn3)=C2)cc1OC,-4.15%
4,Cc1ccc2nc(-c3ccc(NC(=O)COC(=O)c4ccc(Br)o4)cc3)sc2c1,-1.1%
5,CCN=C1SC(CC(N)=O)C(=O)N1CC (stereo not drawn),24.7%
6,COc1cc(C2NC(=O)NC3=C2C(=O)OC3)cc(OC)c1OC (stereo not drawn),22.8%
7,CC1CCN(C(=O)c2ccc(S(=O)(=O)N(C)C)cc2)C(C)C1 (stereo not drawn),3.66%
8,CCN(CCO)Cc1csc2ccccc12.Cl,-5.64%
9,NC(=O)c1ccsc1NC(=O)CSc1ccccc1F,-14.8%
10,Cc1n[nH]c(C)c1S(=O)(=O)N1CCCC(C(=O)Nc2ccc3c(c2)OCCO3)C1 (stereo not drawn),6%
11,CCOC(=O)CN1CC23C=CC(O2)C(C(=O)Nc2ccc(F)cc2)C3C1=O (stereo not drawn),-0.929%
12,O=C(Nc1nc(-c2ccc(Cl)cc2Cl)cs1)C1CCCO1 (stereo not drawn),2.44%
13,O=C(NCCSc1c[nH]c2ccccc12)C1CC1,-4.85%
14,COc1ccc(CN(C)CC(=O)NC2CCCc3ccccc32)cc1OC (stereo not drawn),-36%
15,O=C(Nc1ccc(Cl)cn1)c1ccc(Br)c(S(=O)(=O)N2CCCCC2)c1,18.7%
16,Cc1cc(C)nc(SCc2nnc(SCC(=O)N3CCOCC3)o2)n1,7.85%
17,CN(CCOC(=O)/C=C/c1ccco1)Cc1ccccc1,-4.75%
18,CCOC(=O)CN1CC23C=CC(O2)C(C(=O)NCCc2ccccc2)C3C1=O (stereo not drawn),6.73%
19,CC1CCCCN1Cc1ccc(-c2nn[nH]n2)cc1 (stereo not drawn),22.2%
20,O=C(CSc1nc2scc(-c3ccccc3)c2c(=O)[nH]1)N1CCCCC1,14.4%
21,CCN(C(=O)CSc1nnnn1-c1ccccc1)c1c(N)n(Cc2ccccc2)c(=O)[nH]c1=O,-6.24%
22,C=CCOC(=O)C1=C[C@H](c2cn(C(C)=O)c3ccccc23)C[C@H](OCc2ccc(CO)cc2)O1,-9.82%
